In PubChem BioAssay AID2147 (National Center for Advancing Translational Sciences (NCATS), 2009):
The whole screen tested about 230,000 compounds, of which about 3,600 (1.6%) were called active. This list was built around the results that the source calls inconclusive (neither active nor inactive); the mix of calls is not that of the screen. Calls follow the shape of the dose curve; as a rule, active = well fitted inhibition curve with a large enough effect (not every such curve was filed as active); inconclusive = small, poorly fitted or top-dose-only effect, or another doubt; inactive = no such curve, though single readings can be large or run the other way. A potency beside an inconclusive call is a rough fit, not a confirmed value.
Also: nearly all actives have a fitted effect of over 50% in size.
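For activity change, negative = inhibition in this document: 0% = wells with enzyme and -100% = buffer wells without enzyme.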
Potency is read from the fitted curve at half-maximal effect; tags tell the direction and shape of the fitted curve.

These compounds were tested against Lysine-specific demethylase 4E (Homo sapiens) (UniProt B2RXH2) (assay: qHTS Assay for Inhibitors of Human Jumonji Domain Containing 2E (JMJD2E)). Settings: JMJD2E catalytic domain, FDH-coupled NADH fluorescence (FDH is formaldehyde dehydrogenase); series mostly up to 57.1 µM; activity change, negative = inhibition: at the top concentration.
UniProt B2RXH2, sequence (B2RXH2 whole entry, looked up, the tested form may be a part): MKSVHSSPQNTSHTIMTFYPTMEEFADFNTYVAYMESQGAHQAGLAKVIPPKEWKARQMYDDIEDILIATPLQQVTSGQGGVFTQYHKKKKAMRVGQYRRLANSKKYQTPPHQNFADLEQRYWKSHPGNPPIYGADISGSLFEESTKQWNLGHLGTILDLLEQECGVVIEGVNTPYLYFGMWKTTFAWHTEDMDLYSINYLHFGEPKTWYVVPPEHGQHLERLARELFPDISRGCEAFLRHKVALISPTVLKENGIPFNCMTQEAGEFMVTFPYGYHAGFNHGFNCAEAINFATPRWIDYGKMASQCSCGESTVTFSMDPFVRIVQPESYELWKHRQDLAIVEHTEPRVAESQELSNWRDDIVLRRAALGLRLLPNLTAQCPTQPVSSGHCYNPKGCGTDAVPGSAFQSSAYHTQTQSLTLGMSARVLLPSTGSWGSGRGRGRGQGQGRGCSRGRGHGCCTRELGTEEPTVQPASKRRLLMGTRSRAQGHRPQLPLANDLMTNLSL
CCNC(=S)N(Cc1cc2cc(C)cc(C)c2[nH]c1=O)C1CCCC1 was tested, and the Potency was inconclusive: 39.8 µM [inhibitor, single point]. In the case of Cc1ccc(Nc2nc(-c3cccs3)cs2)nc1, the Potency is reported as inconclusive: 31.6 µM [inhibitor, single point]. In the case of COc1ccc(NC(=O)c2ccc(NC(=O)C(C)C)cc2)c([N+](=O)[O-])c1, the “activity change, negative = inhibition” value is reported as inactive: -3.93%. For C=CCN1C(=O)N/C(=C/c2ccccc2OCC(=O)Nc2ccc(F)cc2)C1=O, the Potency was inconclusive: 31.6 µM [inhibitor, single point]. In the case of CCOC(=O)N1CCN(C(=O)c2ccc3c(=O)n(CCC4=CCCCC4)c(=O)[nH]c3c2)CC1, the “activity change, negative = inhibition” value is reported as inactive: 6.22%. For CCOC(=S)SCC(=O)N1CCc2cc(OC)ccc2C1C1C(=O)CCCC1=O (stereo unspecified), the Potency was inconclusive: 39.8 µM [inhibitor, single point]. For CC(=O)N1N=C(c2ccc3ccccc3c2)OC1(C)C, the Potency was inconclusive: 31.6 µM [inhibitor, partial curve]. For O=C(COc1ccc(Cl)cc1)NCC(=O)N/N=C/c1cccs1, the “activity change, negative = inhibition” value was inactive: -2.99%. O=C(NCc1ccco1)c1ccc(COc2ccccc2Cl)cc1 was tested, and the “activity change, negative = inhibition” value was inactive: 2.08%. With CCS(=O)(=O)N1CCN(C(C)CCc2ccccc2)CC1 (stereo unspecified) the Potency was inconclusive: 25.1 µM [inhibitor, single point]. COc1ccccc1C(=O)N1CCN(c2ccccn2)CC1 was tested, and the Potency was inconclusive: 31.6 µM [inhibitor, partial curve]. In the case of COc1ccc(OC)c(Nc2ncnc3sc(-c4ccccc4)cc23)c1, the Potency is reported as inconclusive: 14.1 µM [inhibitor, partial curve]. In the case of CCC(=O)N1CCc2cc(S(=O)(=O)N3CCc4ccccc4C3)ccc21, the Potency is reported as inconclusive: 28.2 µM [inhibitor, single point]. In the case of O=c1c(-c2ccc(Cl)cc2)coc2c(CN3CCOCC3)c(O)ccc12, the Potency is reported as inconclusive: 28.2 µM [inhibitor, partial curve]. In the case of O=C(CNCC1CCCO1)N1CCCc2ccccc21 (stereo unspecified), the Potency is reported as inconclusive: 39.8 µM [inhibitor, single point]. For CCNc1nc2nc3ccc(C)cn3c(=O)c2cc1C(=O)NCC1CCCO1 (stereo unspecified), the Potency was inconclusive: 14.1 µM [inhibitor, partial curve]. O=C(NCc1ccccc1)c1sc(=S)n2c1[nH]c(=O)c1ccccc12 was tested, and the “activity change, negative = inhibition” value was inactive: -3.35%. With C=C1CCN([C@@H](C)C(=O)NCc2ccc(Cl)cc2)S(=O)(=O)c2ccccc21 the “activity change, negative = inhibition” value was inactive: 17.2%. Cc1ccc(-n2cc(C(=O)c3ccccc3O)cn2)cc1 was tested, and the Potency was inconclusive: 39.8 µM [inhibitor, single point]. COc1cccc(OC)c1C(=O)NC(=S)Nc1ccc2c(c1)C(=O)N(C)C2=O was tested, and the “activity change, negative = inhibition” value was inactive: -3.09%. In the case of Cc1cc2n(n1)C(c1cn(-c3ccccc3)nc1C)Nc1c(C)cccc1-2 (stereo unspecified), the Potency is reported as inconclusive: 28.2 µM [inhibitor, partial curve]. In the case of Cc1ccccc1C(=O)NC(=S)Nc1ccccc1N1CCCC1, the “activity change, negative = inhibition” value is reported as inactive: -5.62%. S=C(c1ccc(-c2ccc(Br)cc2)o1)N1CCCCC1 was tested, and the Potency was inconclusive: 31.6 µM [inhibitor, partial curve]. In the case of COc1ccc2oc(C(=O)OCC(=O)NCCN3C(=O)CSC3=O)c(C)c2c1, the Potency is reported as inconclusive: 28.2 µM [inhibitor, partial curve]. In the case of [O-][n+]1onc2c1CCc1c-2nn(-c2ccccc2Cl)[n+]1[O-], the “activity change, negative = inhibition” value is reported as inactive: 3.63%. In the case of Cc1cccc(C)c1NC(=O)CN(c1ccccn1)S(=O)(=O)c1ccc(F)cc1, the Potency is reported as inconclusive: 20 µM [inhibitor, partial curve]. For CCOc1ccc2nc(NC(=O)C3CCN(c4cnccn4)CC3)sc2c1, the Potency was inconclusive: 31.6 µM [inhibitor, partial curve]. With Cc1ccc(C(C#N)c2ccc(C(=O)c3ccc(F)cc3)cc2)cc1 (stereo unspecified) the “activity change, negative = inhibition” value was inactive: -3.23%. CC(=O)Nc1ccc(S(=O)(=O)NCCNC(=O)c2ccccc2F)cc1 was tested, and the Potency was inconclusive: 39.8 µM [inhibitor, single point]. In the case of OC(CNC1CCCc2ccccc21)COc1ccc2ccccc2c1 (stereo unspecified), the Potency is reported as inconclusive: 17.8 µM [inhibitor, partial curve]. For CCOc1ccc(-c2nnc(-c3cccs3)o2)cc1OCC, the Potency was inconclusive: 28.2 µM [inhibitor, partial curve]. O=C(c1ccccc1)N1N=C(c2ccco2)CC1c1cccs1 (stereo unspecified) was tested, and the “activity change, negative = inhibition” value was inactive: -15.7%. In the case of CCC(C(=O)OCC(=O)Nc1cccc(OC)c1)c1ccccc1 (stereo unspecified), the Potency is reported as inconclusive: 35.5 µM [inhibitor, single point]. With COc1ccc(C(=O)N/N=C/c2sc3ccccc3c2O)cc1 the Potency was active: 35.5 µM. With c1ccc(CSc2ncnc3c2cnn3-c2ccccc2)cc1 the Potency was inconclusive: 35.5 µM [inhibitor, single point]. In the case of CCOc1ccc(/C=C2\SC(=S)N(C(C(=O)O)c3ccccc3)C2=O)cc1OC (stereo unspecified), the “activity change, negative = inhibition” value is reported as inactive: -3.17%. N#CCC(=O)Nc1nc(-c2ccc3c(c2)OCCO3)cs1 was tested, and the Potency was inconclusive: 31.6 µM [inhibitor, single point]. In the case of O=C(O)c1ccc(O)c(O)c1, the Potency is reported as inconclusive: 35.5 µM [inhibitor, single point]. With COc1cc(C2CC(=O)c3c(O)cc(O)cc3O2)ccc1O (stereo unspecified) the “activity change, negative = inhibition” value was inactive: 10.1%. For CCOc1ccc(N2C(=O)CC(Sc3ncccn3)C2=O)cc1 (stereo unspecified), the “activity change, negative = inhibition” value was inactive: 2.33%. In the case of O=C1CC(c2ccccc2)CC(O)=C1C=Nc1ccc(O)cc1 (stereo unspecified), the Potency is reported as inconclusive: 25.1 µM [inhibitor, single point]. COC(=O)c1c(NC(=O)C2CC2)sc2c1CCN(C(C)=O)C2 was tested, and the Potency was inconclusive: 31.6 µM [inhibitor, single point]. With Cc1ccc2c(C)c(C(=O)NCc3ccc(S(N)(=O)=O)cc3)oc2c1 the Potency was inconclusive: 28.2 µM [inhibitor, single point]. CCCCN(CC)C(=S)Nc1ccc2nc3n(c(=O)c2c1)CCCCC3 was tested, and the Potency was inconclusive: 31.6 µM [inhibitor, partial curve]. With CCOC(=O)CSc1nnc(NC(=O)c2cccc(S(=O)(=O)N3CCCCC3)c2)s1 the Potency was inconclusive: 35.5 µM [inhibitor, single point]. For CCn1c(CNC(=O)c2ccc(OC)cc2)nnc1SCC(=O)c1ccccc1, the Potency was inconclusive: 39.8 µM [inhibitor, single point]. For Cc1ccc(-n2c(CC#N)n[nH]c2=S)c(C)c1, the “activity change, negative = inhibition” value was inactive: 2.19%. O=C(COc1ccccc1)Nc1nnc(-c2ccc3c(c2)CCCC3)o1 was tested, and the Potency was inconclusive: 39.8 µM [inhibitor, single point]. With O=C(O)CSc1nnc(COc2cccc3cccnc23)n1-c1ccc(Cl)cc1 the Potency was inconclusive: 31.6 µM [inhibitor, partial curve]. Cc1ccc(-n2ncc3c(=O)n(CC(=O)NCC4CCCO4)cnc32)cc1 (stereo unspecified) was tested, and the Potency was inconclusive: 39.8 µM [inhibitor, single point]. In the case of CC1(C)CC(=O)C(/C=N/c2ncccc2C(=O)O)=C(O)C1, the “activity change, negative = inhibition” value is reported as inactive: 313%. CCCc1[nH]n(-c2ccc([N+](=O)[O-])cc2)c(=O)c1C=NCCc1c[nH]c2ccccc12 was tested, and the “activity change, negative = inhibition” value was inactive: 4.63%. In the case of FC(F)(F)c1ccc2c(c1)NCC1CCCN21 (stereo unspecified), the “activity change, negative = inhibition” value is reported as inactive: 42.4%. Cc1nc(NS(=O)(=O)c2ccccc2)sc1NC(=O)Nc1ccc(Cl)cc1 was tested, and the Potency was inconclusive: 25.1 µM [inhibitor, single point]. In the case of Cc1nnc2sc(-c3ccc(NC(=O)CSc4ccc(Cl)cc4)cc3)nn12, the Potency is reported as inconclusive: 31.6 µM [inhibitor, single point]. O=[N+]([O-])c1cccc(P(=O)(O)c2cccc([N+](=O)[O-])c2)c1 was tested, and the “activity change, negative = inhibition” value was inactive: -3.13%. Cc1cccc(N2CCN(S(=O)(=O)c3ccc4c(c3)CCN4C(=O)CCC(=O)O)CC2C)c1 (stereo unspecified) was tested, and the “activity change, negative = inhibition” value was inactive: 0.911%. CCc1ccc(C2c3[nH]c4ccccc4c3CCN2C(=O)c2cc(C)nn2C)cc1 (stereo unspecified) was tested, and the Potency was inconclusive: 10 µM [inhibitor, partial curve]. In the case of COC(=O)c1c(NC(=O)c2ccco2)sc(C(=O)N(C)C)c1C, the Potency is reported as inconclusive: 28.2 µM [inhibitor, single point]. In the case of Cc1ccc(-c2[nH]c3cc(C(=O)NCCCn4ccnc4)ccc3c(=O)c2O)cc1, the Potency is reported as inconclusive: 39.8 µM [inhibitor, single point]. In the case of C[C@@H](NCc1cc(Br)cc2[nH]c(=O)c(=O)[nH]c12)P(=O)(O)O, the “activity change, negative = inhibition” value is reported as inactive: 3.09%. In the case of O=C(NCCc1ccc(Cl)cc1)/C(=C/c1cccnc1)NC(=O)c1ccccc1, the Potency is reported as inconclusive: 39.8 µM [inhibitor, single point]. For Cc1ccc2nc3c(cc2c1)c(NC(=O)c1ccco1)nn3CC(C)C, the Potency was inconclusive: 35.5 µM [inhibitor, partial curve]. With CC12C(=O)N(CCC(=O)O)C(=O)C1C1C=CC2C1 (stereo unspecified) the Potency was inconclusive: 39.8 µM [inhibitor, single point]. With CCN(CC)CCCN(Cc1cc2cc3c(cc2[nH]c1=O)OCO3)C(=O)Nc1ccccc1OC the Potency was inconclusive: 25.1 µM [inhibitor, partial curve]. With N#Cc1c(N)c(C#N)c(-c2ccc3c(c2)OCO3)c2c1CCCC2 the Potency was inconclusive: 35.5 µM [inhibitor, partial curve]. For CCOC(=O)c1ccc(NC(=O)CSc2nnc(-c3cccs3)n2CC)cc1, the Potency was inconclusive: 35.5 µM [inhibitor, single point]. Cc1cccc(NC(=O)c2oc(=O)c3ccccc3c2-c2ccccc2)c1C was tested, and the “activity change, negative = inhibition” value was inactive: 6.52%. O=[N+]([O-])c1cc(CN2CCCC2)c2cccnc2c1O was tested, and the Potency was active: 20 µM. For CCOc1ccc2[nH]c(=O)c(CN(Cc3ccco3)C(CC)c3nnnn3Cc3ccccc3)cc2c1 (stereo unspecified), the Potency was inconclusive: 28.2 µM [inhibitor, partial curve]. In the case of Cc1cc(-c2nc3ncccc3o2)ccc1NC(=O)CC(C)C, the Potency is reported as inconclusive: 25.1 µM [inhibitor, partial curve].
